The values that follow come from patent publication US20080138329A1, “Inhibitors of Dna Methylation in Tumor Cells” (DKFZ Deutsches Krebsforschungszentrum, priority 2004, published 2008).

One data set deals with NALM-6 cells. Kind of data set: Growth and viability of NALM-6 cells (trypan blue counting). The conditions noted are these: 10 μM, 15 days.
Data set [1] relates to HCT116 cells. Briefly: Growth and viability of HCT116 cells (trypan blue counting). The following applies: 10 μM, 15 days.
Data set [2] has as its system genomic DNA of HCT116 cells. Briefly: Genomic cytosine methylation level of HCT116 cells by capillary electrophoresis. Type of data set: cell-based, human. The following applies: 10 μM. On the procedure: (§1) Analysis of genomic DNA methylation. DNA was isolated from cells using the DNeasy kit from Qiagen. Cytosine methylation levels were determined by capillary electrophoresis, as described previously (Stach, D., Schmitz, O. J., Stilgenbauer, S., et al. 2003. Nucleic Acids Res. 31, e2).

The test system of another data set is human hMLH1 gene. Briefly: Methylation-specific PCR of hMLH1 gene in HCT116 cells. The format is cell-based. The conditions noted are these: 10 micromolar. The source says: RG108 causes demethylation in HCT116 cells. We have used methylation-specific PCR (Herman, J. G., Graff, J. R., Myohanen, S., Nelkin, B. D., Baylin, S. B. Methylation-specific PCR: a novel PCR assay for methylation status of CpG islands. Proc. Natl. Acad. Sci. USA. 1996, 93:9821-9826) to determine the effect of RG108 on the methylation of the human hMLH1 gene in HCT116 cells.

Another data set has as its system TIMP-3 CpG island. Kind of data set: Bisulfite sequencing of the TIMP-3 CpG island in HCT116 cells. The format is cell-based, human. The following applies: 30 μM, 5 days, P<0.05 (t-test). On the procedure:
Bisulfite sequencing was performed under standard conditions (Frommer, M., et al., 1992. A genomic sequencing protocol that yields a positive display of 5-methylcytosine residues in individual DNA strands. Proc. Natl. Acad. Sci. USA, 89: 1827-1831) with genomic DNA from HCT116 cells treated with 30 μM RG108 or no inhibitor for 5 days. The primers used and the PCR conditions were as follows: forward [NT], reverse [NT], 95° C. 3 min., 38 […]. 5 min. PCR products were purified using the QIAquick Gel Extraction Kit (Qiagen), sub cloned into the pCR 4-Topo plasmid vector (Invitrogen) and subjected to automated sequencing.

Data set [3] has as its system p16INK4a, SFRP1 and TIMP-3. Kind of data set: Methylation (MSP) and expression (RT-PCR) of epigenetically silenced genes in HCT116 cells. The format is cell-based, human. The conditions noted are these: MSP at 10 μM, RT-PCR at 0, 10, 30, 100 μM. As to the method: (§2) (a) Effect of increasing concentrations of RG108 on the proliferation rate of HCT116 cells. Equal amounts of cells were incubated with different concentrations of RG108 and counted after 5 days. Black bars represent results from 3 independent experiments, standard deviations are indicated by error bars. (b) Reactivation of the p16^INK4a gene (p16) in HCT116 cells treated with RG108. […] Untreated HCT116 cells expressed only the mutant allele of p16 (lower panel). (c) Effect of RG108 on the methylation and expression of various epigenetically silenced genes in HCT116 cells. Methylation-specific PCR (MSP) was used to analyze the methylation status of p16^INK4a, SFRP1 and TIMP-3 in DNA from cells incubated with 10 μM RG108. RT-PCT (RTP) was used to determine the expression level in cells incubated with 0, 10, 30 or 100 μM RG108, as indicated. β-Amyloid (βAm) was used as a loading control. (d) Effect of RG108 on the methylation status of centromeric satellite sequences. HCT116 cells were incubated with variable concentrations of RG108 (RG) or 5-azacytidine (aza), as indicated. The methylation status was analyzed by methylation-sensitive Southern analysis. The size of marker fragments (in kbp) is indicated on the sides of the panels, respectively.
Total RNA was isolated from cells using Trizol reagent (Invitrogen). cDNA was synthesized by using the cDNA synthesis kit from Invitrogen. […]

The test system of data set [4] is centromeric satellite sequences. Briefly: Methylation-sensitive Southern analysis of centromeric satellite sequences in HCT116 cells. The format is cell-based, human. The conditions noted are these: variable concentrations. As to the method:
as §2, with “HCT116 cells were incubated with variable concentrations of RG108 (RG) or 5-azacytidine (aza), as indicated.” left out, “The size of marker fragments (in kbp) is indicated on the sides of the panels, respectively.” left out
The methylation status of satellite sequences was analyzed by methylation-sensitive Southern blots, as described previously (Rhee, I. et al. DNMT1 and DNMT3b cooperate to silence genes in human cancer cells. Nature, vol. 416, pp. 552-556 (2002)).

The subject of data set [5] is HCT116 cells. Kind of data set: Proliferation rate of HCT116 cells, counted after 5 days. The conditions noted are these: increasing concentrations. The format is cell-based, human. On the procedure: as §2
The subject of data set [6] is genomic DNA of NALM-6 cells. Kind of data set: Genomic cytosine methylation level of NALM-6 cells by capillary electrophoresis. Type of data set: cell-based, human. The conditions noted are these: 10 μM. On the procedure: as §1
In another data set the target is T1, M.SssI methylase (Spiroplasma monobiae, UniProt P15840).
T1 construct: purchased New England Biolabs
T1 sequence (P15840 whole entry): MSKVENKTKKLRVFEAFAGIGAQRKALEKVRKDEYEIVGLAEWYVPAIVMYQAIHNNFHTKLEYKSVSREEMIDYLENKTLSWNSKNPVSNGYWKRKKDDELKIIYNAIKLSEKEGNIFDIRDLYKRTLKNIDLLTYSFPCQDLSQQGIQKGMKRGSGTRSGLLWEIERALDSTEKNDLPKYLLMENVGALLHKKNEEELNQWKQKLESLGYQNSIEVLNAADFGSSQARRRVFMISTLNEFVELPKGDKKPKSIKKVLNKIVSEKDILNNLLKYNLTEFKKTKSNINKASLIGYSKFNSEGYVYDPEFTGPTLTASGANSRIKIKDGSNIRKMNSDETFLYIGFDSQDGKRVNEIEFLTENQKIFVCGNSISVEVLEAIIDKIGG
Kind of data set: In vitro DNA methylation assay with purified recombinant CpG methylase M.SssI. Type of data set: biochemical. The conditions noted are these: inhibitors at 10, 100, 200, 500 μM; BstUI restriction fragments. On the procedure: The effect of RG108 was analyzed in an in vitro DNA methylation assay. For this assay, the purified recombinant CpG methylase M.SssI was used. […] A 798 bp PCR fragment from the promoter region of the human p16/CDKN2A gene was used as a substrate and DNA methylation was visualized by digestion with the methylation-sensitive restriction enzyme BstUI. Thus, inhibition of
DNA methyltransferases can be detected by the appearance of unprotected, smaller restriction fragments (FIG. 2a).
The substrate DNA for the in vitro methylation assay was generated by PCR amplification of a 798 bp fragment from the promoter region of the huma p16/CDKN2 gene. The methylation reaction contained 350-400 ng substrate DNA (13-15 nM DNA, corresponding to 1.6-1.8 μM CpGs) in reaction buffer (50 mM NaCl, 10 mM Tris-HCl, 10 mM MgCl2, 1 mM dithiothreitol, pH 7.9), 80 μM S-adenosylmethionine, and 4 U of M.SssI methylase (0.5 μM, New England Biolabs) in a final volume of 50 μl. Inhibitors were added in concentrations of 10, 100, 200, and 500 μM, respectively. Reactions were performed at 37° C. for 2 hours. After completion, the reaction was inactivated at 65° C. for 15 min and the DNA was purified using the QIAquick PCR Purification Kit (Qiagen). 250 ng of purified DNA was digested for 3 h at 60° C. with 30 units of BstUI (New England Biolabs) and analyzed on 2% agarose gels.

Take `Nc1ncn([C@@H]2O[C@H](CO)[C@@H](O)[C@H]2O)c(=O)n1` [5-azacytidine, reference compound]: the “effect on growth and viability of NALM-6 cells” value in the data set on NALM-6 cells is listed as “highly toxic”. Besides, the “effect on growth and viability of HCT116 cells” value with HCT116 cells [1] is on record as “intermediate effect”. Further, the “demethylation of genomic DNA in HCT116 cells (in words)” value in data set [2] is reported as “similar”. Further, the “demethylation of the hMLH1 gene” value in the data set on human hMLH1 gene is recorded as “no demethylation”.
In the case of `O=C(O)C(Cc1c[nH]c2ccccc12)N1C(=O)c2ccccc2C1=O` (stereo not drawn) [RG108], the “demethylation of CpG dinucleotides of the TIMP-3 CpG island” value in the data set on TIMP-3 CpG island is “significant demethylation”. For the same compound, the “demethylation and reactivation of euchromatic genes (tumor suppressor genes)” value in [3] was “substantially demethylates and reactivates”. In addition, the “demethylation of genomic DNA in HCT116 cells” value in data set [2] is listed as 30%. Further, the “demethylation of centromeric satellite sequences” value in [4] is given as “not the centromeric satellite sequences”. Also, the “demethylation of the hMLH1 gene” value in the data set with human hMLH1 gene is reported as “complete demethylation”. Moreover, in the data set on HCT116 cells [5], the “proliferation of HCT116 cells” value is given as “reduces the proliferation”. For the same compound, the “reduction of DNA methylation in NALM-6 cells” value in [6] (after 5 days) is on record as 15%; in [6] (after 15 days), 60%.
As to `O=C1c2ccccc2C(=O)N1CCc1c[nH]c2ccccc12` [ΔC-RG108, reference compound], the “demethylation of genomic DNA in HCT116 cells (in words)” value in data set [2] is on record as “failed to demethylate”. In addition, the “inhibition of DNA methyltransferase activity in vitro, concentration series” value at M.SssI methylase is “failed to inhibit”. In data set [6], the “demethylation of genomic DNA in NALM-6 cells (in words)” value is on record as “failed to demethylate”.
